Reference: US10730895B2, “Carbidopa prodrug” (AbbVie Inc., priority 2014, dated 2020)
Like-named read-outs stand apart in the source and are kept apart here.

Tests used:
[1] = In vitro bioconversion study, blood (mini-pig); type: in vitro ADME
[2] = In vitro bioconversion study, blood (rat); type: in vitro ADME
[3] = In vitro bioconversion study, skin homogenates (mini-pig); type: in vitro ADME; settings: for L-Dopa or Carbidopa Formation: mini-pig skin homogenate; for half-life at 2.5 ug/mL: minipig, mini-pig skin homogenate 3 mg/mL, 37° C.
[4] = In vitro bioconversion study, skin homogenates (human); type: in vitro ADME; settings: for L-Dopa or Carbidopa Formation: human skin homogenate; for half-life at 2.5 ug/mL: human skin homogenate 3 mg/mL, 37° C.
[5] = In vitro bioconversion study, blood (human); type: in vitro ADME
[6] = In vitro bioconversion study, skin homogenates (rat); type: in vitro ADME; settings: for L-Dopa or Carbidopa Formation: rat skin homogenate; for half-life at 2.5 ug/mL: rat skin homogenate 3 mg/mL, 37° C.
[7] = Pharmacokinetic study in rats, individual prodrug IV or SC; type: in vivo, Sprague-Dawley rats; settings: rat; for Estimated Conversion % (Based on L-dopa AUC): dose 7.05 mg/kg; for AUC: male, Sprague-Dawley, plasma, dose 5 mg/kg, L-dopa and carbidopa in aqueous solution, read-out: L-dopa AUCO-8 h
Method: For comparison, a rat pharmacokinetics study with L-dopa and carbidopa was conducted to help assess the in vivo conversion of the prodrugs. The study design and measured exposures of L-dopa and carbidopa are summarized in Tables 16-A and 16-B, respectively. In brief, groups of three male Sprague-Dawley rats were given (1) L-dopa and carbidopa in aqueous solution, or (2) the individual prodrug in aqueuous solution intravenously or subcutaneously. Blood samples were collected at multiple time points over 24 hours into a collection tube containing NaAsO4, EDTA, and ascorbic acid. […] The supernatants were subjected to LC-MS analysis for quantitation of prodrug, L-dopa or carbidopa.

[8] = In vitro bioconversion study, intestinal S9 fractions (human); type: in vitro ADME
[9] = In vitro bioconversion study, intestinal S9 fractions (rat); type: in vitro ADME

L-Dopa or Carbidopa Formation ([8]; human intestinal S9 fraction) | half-life at 2.5 ug/mL ([8]; human intestinal S9 fraction 1 mg/mL) [h] | L-Dopa or Carbidopa Formation ([9]; rat intestinal S9 fraction) | half-life at 2.5 ug/mL ([9]; rat intestinal S9 fraction 1 mg/mL) [h] | AUC ([7]; IV) [ng·h/mL] | AUC ([7]; SC) [ng·h/mL] | Compound | L-Dopa or Carbidopa Formation [1] | half-life at 2.5 ug/mL ([1]; minipig, prodrug 2.5 ug/mL, 37° C.) [min] | L-Dopa or Carbidopa Formation [2] | half-life at 2.5 ug/mL ([2]; prodrug 2.5 ug/mL, 37° C.) [h] | L-Dopa or Carbidopa Formation [3] | half-life at 2.5 ug/mL [3] [h] | L-Dopa or Carbidopa Formation [4] | half-life at 2.5 ug/mL [4] [h] | L-Dopa or Carbidopa Formation [5] | L-Dopa or Carbidopa Formation [6] | half-life at 2.5 ug/mL [6] [h] | Estimated Conversion % (Based on L-dopa AUC) ([7]; IV) [%] | Estimated Conversion % (Based on L-dopa AUC) ([7]; SC) [%]
 |  |  |  |  |  | N[C@@H](Cc1ccc(O)c(OP(=O)(O)O)c1)C(=O)O [L-dopa 3′-phosphate] | Yes | 8.8 | Yes | 0.343 | Yes | 14.8 | Yes | 11.2 | Yes | Yes | 12.3 | 66 | 96
Yes | 0.572 | Yes | 2.63 |  |  | N[C@@H](Cc1ccc(OP(=O)(O)O)c(O)c1)C(=O)O [L-dopa 4′-phosphate, (S)-2-amino-3-(3-hydroxy-4-(phosphonooxy)phenyl)propanoic acid] |  |  |  |  | Yes | 7.07 | Yes | 9.87 |  | Yes | 16.5 | >100 | >100
 |  |  |  | 1170 | 669 | N[C@@H](Cc1ccc(O)c(O)c1)C(=O)O [L-dopa, L-3,4-dihydroxyphenylalanine, reference compound] |  |  |  |  |  |  |  |  |  |  |  |  | 
